Laboratory results from the supplement of paper PMC12632987.
Over roughly 4,500 sequences, “median log2 fold change of GCK-ALFA target abundance (FLAG IP / Myc IP barcode read proportion)” has its median near 0.078; the lowest 2% begin near -0.6. The list shows a part of the results.

B1: GBRAP_160_4213 (protein)
chain: MEKVEKIIKLLKEETERVISLIPELSAEEVANAAAVEFGAVLMEAVDLGEENDEILDTIAEAADRAVEVLLENKDASPEELAKKLKEIAEKAIEEIKKIA
B2: GBRAP_139_3730 (protein)
chain: DEAEKKVKEVVELTKKSLETGGEYVKEIAKLLNSMDEETQEKAAEAMAEVLESESFDKAEAFFDALIETLLTEYKNEDLADIVEAAANRALARVAVREEA
B3: GBRAP_160_4750 (protein)
chain: KEELKKLKEEVEEIFEEGIEILKEVPASEAPTVVRGTMGEVLMLVFSSEAASEELEDKVGAIADETEARAAANADAPVEEHIALLEEAKEKVLKAIEEEI
B4: GBRAP_11_2820 (protein)
chain: EKEKLKEGAKKAEELAKEIKELIESGNVTKEELEELLKKAEELLKFTKEYGDEDEAKLAEIALENIKEALKNPEKLKEYLTNALAAVRVLAGQYLLKYEE
B5: GBRAP_160_4332 (protein)
chain: MERFEALKKEIDEEFDETIELIEGESLEQVKVIISGTFGAIAMTFAEDPNVSDELVDFVIDVEDETLATLDANPDLSLEEIKALIEEARDKILEALDKEA
B6: GBRAP_74_6499 (protein)
chain: SAATEAAAEEFAALLRAGASYEELMAHLAKMNVEALNAAVIKATEVARANADELTEEQIDALAELADRVFAESEDPEAIKAAGELVKILYERELRLEAER
B7: GBRAP_96_7101 (protein)
chain: MLEEARKLVKELIEALDTDPERARELARELLEFPVEVIVEALVEEVKTPEEAYKVTRILLSLGDPKAEEVALEFAERSDGERSKAVIEAMEEYEREREAA
B8: GBRAP_128_3388 (protein)
chain: SQEEKLAKAKELIDAIVKADVETARVLTRELMELLGTLSLEDQEKVVEYLKSKLPELTAEKLDVIADVLREKRPEFDPESQNLIADAEVEALNEAEEKEE
B9: GBRAP_39_5645 (protein)
chain: EEEEEAELEFSYYEALGSKYMVDNGLSDEEVEEETKRLAEEVMKKYPEIKEEIEEALELAEKGSLFHKVALLGLLLEAKKGLPVEELKKHLKLLIKYFKS
B10: GBRAP_78_6665 (protein)
chain: EVEEELDKAIEHLDKAAKLTKQLPPEAQNELLDELVDAISEIVESEENGIDEEELEEALKEVEEAIELAKKLKTPEAEKLLEELEKAKEHIEKAIKLLKE
B11: GBRAP_125_3073 (protein)
chain: AEEEDLADLARIARALGFSDGEVEELVRLAAASSLRQALIALMLAEGAEETADAVARLTEEQARAVLREVAAELEANPDLTPEEVVALLLERARAAEAEA
B12: GBRAP_160_4773 (protein)
chain: SEKLEEAKKAIEEAKKEILEAIDTESPEEALTVVRGETGDIIMEVFELEFDNDELEDKIAEIMDKLVKEMEKNANASPEEKKKIVEKYAEEMIKTLEELS
B13: GBRAP_48_5818 (protein)
chain: MELDLEKLKKLVKETVEEMKEIYEEAKKEGLSDEDILKMIRAELGDLALELEEAGYDKAADWLRDPENSTELAEKLLELFKEGKYEEAVKYLLDKLLEVE
B14: GBRAP_52_6186 (protein)
chain: MREELRATVREILALVKAGKREEARALAEKLVAELSDEELKLLVEVLEEVAAAAPLEDADAVFETAEILAEAIEAAGKDEALAEDILAAAARALYKKELA
B15: GBRAP_128_3571 (protein)
chain: SHEEKLKKAEELIEKIINSDLEEARKYSEELVELIGESDEETREKIVELVLKALPKLTKEKLLVLADVLRENRPKLDPLAAEYAADIEVEALNQALELEE
B16: GBRAP_166_4920 (protein)
chain: SMEARVAAARRRLEAVIAEERADPRMTPAQITVAMADELAEILDEEEDEETRLAIVRAGLELAKAAGLDPRRLAELTAGLYGFSDEEEERVREIVEEILA
B17: GBRAP_96_7089 (protein)
chain: ELEEVKKLVKEFLEALDKDPEKARELAKELLKYPPELIAKALKELGVSDEEVAKLFRILFEEDPSKAAELIEAFTEIVSSETVVKMVEIAIELEEKREKE
B18: GBRAP_160_4611 (protein)
chain: SMKQEEFIKDIEELFEETIKMIEGETIEERANLIDVTIGEIIIEADELEVVSDESLDKIDEIRDEVVETILENPDLTDEEIKELIEEAREKIIEIVKEDE
B19: GBRAP_14_3828 (protein)
chain: MEKIREVLEEMAADLKEDFAAISPEKAAELAALVEEEIEKTLEEIEKTGDIEKALREMEERLLAGIDELLADEPEEVRATVKAAVRTEIAEALEEIDELL
B20: GBRAP_14_3784 (protein)
chain: MEAILAAAEETFAELRDILQEIAPEKAAEITALVDAALAALKARIKETGDPVAAARETFAALAAAVAALTADLPADVRARALGAVATEGANLELEVEELT
B21: GBRAP_128_3526 (protein)
chain: SVEEAKEKAKEVMEKIKNSTVEEAKAITEEFLEWLKTQTLEEVKAAADVLIENLPKLSAEKLDAVADAIDENLDKFTPEKQRELNGVRVEALNEAEEKEE
B22: GBRAP_184_5296 (protein)
chain: EVRRVTIEAETAEEAIAKIEEAAARARAEGVRLRLDLFLRNVSVEGFARIAERLAALRAEGLIVEATVVLLDEKSEEEVDRFVAIADAAGVRLVVALSDE
B23: GBRAP_11_2688 (protein)
chain: KKEKLKEGAELAEELAELLKKLLEEGVDNEELIKEAKEKLEELLKLTKEYADKASQKRTEYLYETWKELLADPENAEEYAKEALAEARVLAGDYLLEIEE
B24: GBRAP_128_3482 (protein)
chain: SVEEAVARVRELMERIKTSSLEEVKEISREIVELLGSLNDEEAEAAAEAIEEELPKLTAEKLDIIADVFEENRGTLDPYKANLVAGVAVEALNEALEKEE
B25: GBRAP_80_6812 (protein)
chain: AEERLEEALKEIAELNPELAERLERIVEDARAVGVPVEALAELAEALLELLKVNPELAEEALEELEEDLEEAIAEGDTARAEATIRVYAGQMLLEVEELE
B26: GBRAP_160_4527 (protein)
chain: MERLEEKKKLLEEAAKRAIELVKGESAEQRAVIVSMEFGSLAMEFAEDERVSDEEVDVVIDAEDELVETILANPDLTDEEIAKLIEEAVKKIIEELEKLY
B27: GBRAP_160_4723 (protein)
chain: NENIEKLAEEALKLLKEAVKLTEDLSKEEAKAMFETAAGEVLLMFSEDPNITDEMEETAAKILDELVKELVENYDASLEEKLKIVEEYIEKLKEELEKLA
B28: GBRAP_11_2670 (protein)
chain: KKEALKKALKLAKEAAKTAQKLIEEGVDNEELLKELEKLLEEIKKLAEEHLDPAYKRDVEIAEELFKKAKEDEENKLEYLKLLLASLAVLAGNLELDLDE
B29: GBRAP_128_3558 (protein)
chain: STAAAVAEVRALLDAIAASDAATAAALARRLAALIAAADPETREAIVAEILERLPELSAEHLEILADVFRAARPAADPATAEALAEIEVAALNEAEELEE

Biological target: GABARAP, O95166
Sequence (O95166 whole entry, the tested form may be a part): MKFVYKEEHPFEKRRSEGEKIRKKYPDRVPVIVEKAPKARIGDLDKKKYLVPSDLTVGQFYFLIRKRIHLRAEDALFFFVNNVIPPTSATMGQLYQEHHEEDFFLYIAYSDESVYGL
Assay: median log2 fold change of GCK-ALFA target abundance (FLAG IP / Myc IP barcode read proportion) (log2 ratio); each designed protein is fused to an ALFA-tag nanobody in HEK293 cells to bring the named protein to FLAG-tagged glucokinase (GCK); Myc marks an untargeted standard; higher = target protein stabilised (more abundant)
Settings: target protein: 3xFLAG-MCP-GCK-ALFA reporter; HEK293 landing pad (RPLP)
How it was run: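 Sequencing of reverse-transcribed, amplified circular RNA barcodes from anti-FLAG and anti-Myc immunoprecipitates provided the readout for an ALFA-nanobody-fused binder library recombined into HEK293 landing-pad cells. Those cells were induced with 2 μg mL^−1 doxycycline, transfected with a plasmid expressing a FLAG-tagged target and a Myc-tagged standard, and lysed after 48 h. Target abundance is the per-binder median log2 ratio of FLAG to Myc barcode read proportions. Only barcodes at a proportion of ≥10^−7 in both replicates and binders with ≥3 barcodes per replicate were kept, with a 10^−6 pseudocount added before the two replicates were pooled.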

Point of comparison: B25, “median log2 fold change” value -0.337. Against it:
- B1 — higher, -0.00987
- B2 — higher, 0.195
- B3 — within 0.2 log units, -0.145
- B4 — higher, 0.223
- B5 — within 0.2 log units, -0.263
- B6 — lower, -0.772
- B7 — higher, 0.297
- B8 — higher, 0.104
- B9 — higher, 0.172
- B10 — higher, 0.339
- B11 — higher, -0.058
- B12 — higher, -0.122
- B13 — higher, 0.19
- B14 — higher, -0.0816
- B15 — higher, 0.107
- B16 — higher, 0.131
- B17 — higher, 0.223
- B18 — within 0.2 log units, -0.246
- B19 — higher, 0.249
- B20 — within 0.2 log units, -0.242
- B21 — higher, 0.374
- B22 — higher, -0.0783
- B23 — higher, 0.135
- B24 — within 0.2 log units, -0.185
- B26 — higher, -0.0594
- B27 — higher, 0.121
- B28 — higher, 0.0381
- B29 — higher, 0.187
